Assay results: PubChem BioAssay AID588342 (National Center for Advancing Translational Sciences (NCATS), 2011)
The whole screen tested about 360,000 compounds, of which about 25,000 (6.9%) were called active. The inconclusive results got no clear call from the source; some entries with a clear call stand among them for comparison. The call rests on the fitted dose curve; in most records, active means well fitted inhibition curve with a large enough effect; inconclusive means small, poorly fitted or top-dose-only effect; inactive means flat fitted curve, though single readings scatter. Potencies of inconclusive entries are doubtful fits and often do not repeat.

Molecular target: Luciferin 4-monooxygenase (Photinus pyralis) (UniProt P08659)
Assay: qHTS profiling assay for firefly luciferase inhibitor/activator using purifed enzyme and Km concentrations of substrates (counterscreen for miR-21 project); further: nearly all actives have a fitted effect of over 55% in size
Settings: purified FLuc, luminescence inhibition; series mostly up to 57.5 µM
In short: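 Biochemical qHTS of compounds, final roughly 60 µM downward over six points, against 10 nM purified firefly luciferase using Km concentrations of substrates (10 uM D-luciferin, 10 uM ATP) in Tris acetate pH 7.5 buffer; luminescence output.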
Potency means the concentration at half of the fitted maximal effect; tags describe the fitted curve by direction and shape.

Sequence of UniProt P08659 (P08659 whole entry, looked up): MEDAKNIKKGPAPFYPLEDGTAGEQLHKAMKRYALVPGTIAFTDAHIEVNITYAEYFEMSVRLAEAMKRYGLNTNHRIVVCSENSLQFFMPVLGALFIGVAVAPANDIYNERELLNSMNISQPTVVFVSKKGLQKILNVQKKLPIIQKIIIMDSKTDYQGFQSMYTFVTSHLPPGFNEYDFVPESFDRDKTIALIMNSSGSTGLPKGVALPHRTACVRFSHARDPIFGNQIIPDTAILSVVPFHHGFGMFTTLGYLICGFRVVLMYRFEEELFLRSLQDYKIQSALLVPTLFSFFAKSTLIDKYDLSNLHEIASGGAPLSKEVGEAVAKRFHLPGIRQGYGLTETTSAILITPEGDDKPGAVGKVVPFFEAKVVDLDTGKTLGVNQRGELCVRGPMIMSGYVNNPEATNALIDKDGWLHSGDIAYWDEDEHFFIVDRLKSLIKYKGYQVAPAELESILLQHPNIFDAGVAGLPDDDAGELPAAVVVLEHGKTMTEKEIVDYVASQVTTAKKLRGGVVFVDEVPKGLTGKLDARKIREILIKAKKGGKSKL

Compound | Potency
Cc1nc(-c2ccc(C(F)(F)F)cc2)sc1C(=O)NN | inconclusive: 37.9 µM [inhibitor, single point]
COC(=O)Cc1ccc(NC(=S)N2CCCCC2C)cc1 (stereo not drawn) | active: 4.78 µM
CN(C)S(=O)(=O)c1cccc(NC(=S)NC(=O)C2CCCCC2)c1 | inconclusive: 21.3 µM [inhibitor, single point]
COC(=O)c1c(-c2cccs2)csc1NC(=O)c1ccc(Cl)cc1 | inconclusive: 8.49 µM [inhibitor, partial curve]
Cc1oc2cc3oc(=O)c(CCC(=O)NCc4ccccn4)c(C)c3cc2c1C | inconclusive: 21.3 µM [inhibitor, partial curve, poor fit]
Cc1ccc(CNC(=O)CSc2ccsc2[N+](=O)[O-])cc1 | inconclusive: 8.49 µM [inhibitor, partial curve]
COc1ccc2c(c1)c1c(c(=O)n(-c3ccccc3C)c(=O)n1CC(=O)NCc1ccc(C)cc1)n2C | inactive
C=C(C)Cn1cnc2c(oc3nc4c(cc32)CCCC4)c1=O | active: 21.3 µM
C/C(N)=C(/C#N)C(=O)COC(=O)CSc1ccc2ccccc2c1 | inconclusive: 21.3 µM [inhibitor, single point]
N#C/C(=C\c1ccc([N+](=O)[O-])cc1)C(=O)Nc1ccccc1O | inconclusive: 13.5 µM [inhibitor, partial curve]
c1ccc(COc2ccc(OCCCCN3CCCCC3)cc2)cc1 | inconclusive: 23.9 µM [inhibitor, partial curve, poor fit]
CCN(CC)c1ccc(NC(=O)CSc2nnc(C)c(=O)[nH]2)cc1 | inconclusive: 21.3 µM [inhibitor, partial curve]
CSc1nc2ccc(Cl)cc2[nH]1 | inconclusive: 23.9 µM [inhibitor, partial curve, poor fit]
Cc1ccc(-c2onc(C)c2C)cc1S(=O)(=O)NCc1ccco1 | inactive
Cc1noc(C)c1COc1ccc(C(=O)N2CCN(S(=O)(=O)c3ccc(Cl)cc3)CC2)cc1 | inactive
Cc1c(-c2ccccc2)n[nH]c1C(=O)N=Nc1c(O)[nH]c2ccccc12 | inconclusive: 6.75 µM [inhibitor, full curve]
O=C1CS/C(=C/C(=O)c2ccccc2)N1 | inconclusive: 37.9 µM [inhibitor, partial curve, poor fit]
Cc1ccc(S(=O)(=O)c2cnc(SCC(=O)Nc3ccc4c(c3)OCCO4)[nH]c2=O)cc1 | active: 10.7 µM
CCCc1ccc(Oc2cc(C)nc(N3CCOCC3)n2)cc1 | inconclusive: 37.9 µM [inhibitor, partial curve, poor fit]
Cc1cc(C(=O)OCc2nnc(-c3ccccc3)o2)c(C)n1-c1ccccc1 | inconclusive: 26.9 µM [inhibitor, single point]
O=C(Oc1cccc2cccnc12)c1cccc(N2C(=O)C3C4CCC(C4)C3C2=O)c1 (stereo not drawn) | inconclusive: 26.9 µM [inhibitor, partial curve, poor fit]
COc1ccc(NCC(=O)Nc2ccc(Br)cc2F)c(OC)c1 | inconclusive: 37.9 µM [inhibitor, partial curve, poor fit]
COc1ccc(C(=O)C[n+]2ccc3ccccc3c2C)cc1 | inactive
CN(C1CCCCC1)S(=O)(=O)c1ccc2c(c1)c(=O)c(C(=O)NCCc1ccc(Cl)cc1)cn2C | inactive
CCOC(=O)c1cnc(SCC(=O)NCc2ccco2)nc1N | inactive

Compound | Potency
CC1=C(C#N)C(NC(=O)C(C)(C)C)(C(F)(F)F)C(=O)N1 (stereo not drawn) | inactive
O=C(OCC(=O)N1CCN(c2ccccc2)CC1)c1ccc(O)cc1O | inactive
CCc1ccc(-c2nc(CN3CCC(C(=O)NCc4ccc(F)cc4)CC3)c(C)o2)cc1 | inconclusive: 26.9 µM [inhibitor, single point]
CSCCC(NS(=O)(=O)c1ccc2c(c1)oc(=O)n2C)C(=O)NCCc1ccc(C)cc1 (stereo not drawn) | inactive
Nc1nc(-c2ccccc2)cc(-c2ccccc2O)n1 | inconclusive: 15.1 µM [inhibitor, partial curve, poor fit]
COc1ccc(Oc2coc3cc(OCC(=O)N4CCCCC4)ccc3c2=O)cc1 | inconclusive: 23.9 µM [inhibitor, single point]
O=c1oc(-c2ccccc2F)nc2scc(-c3ccccc3)c12 | active: 4.78 µM
Cc1onc(-c2ccccc2Cl)c1C(=O)Nc1cccc(S(=O)(=O)NC2=NCCC2)c1 | inconclusive: 30.1 µM [inhibitor, partial curve, poor fit]
O=C(OCc1ccc(-c2ccccc2)cc1)c1cccc(O)c1 | inconclusive: 21.3 µM [inhibitor, single point]
Cn1c(SCC(=O)N2CCCc3ccccc32)ncc(C(=O)Nc2ccc(Cl)cc2)c1=O | inactive
C=CCNC(=O)c1c(Cl)cnn1-c1ccc(C)cc1 | active: 16.9 µM
CN1C(=O)C(CC(=O)NCCc2ccccc2)N(NC(=O)c2ccc(Cl)cc2)C1=S (stereo not drawn) | inactive
Cc1nc(NC(=O)c2ccccc2)nc2cc3c(cc12)OCO3 | active: 16.9 µM
COc1ccc(/C=N/NC(=S)N[C@H]2CC3CCC2C3)cc1 (stereo partly drawn) | inconclusive: 37.9 µM [inhibitor, partial curve, poor fit]
O=C(Nc1ccccc1)/C(=C/c1ccc(O)cc1)NC(=O)c1ccco1 | inactive
COc1ccc(N2CCN(C(=O)Cn3nnc(-c4ccccc4N)n3)CC2)cc1 | inactive
C/C(=N\NC(=O)c1ccc(F)cc1)c1ccccn1 | active: 8.49 µM
CC(C)(C)c1ccc(O)c(O)c1 | inconclusive: 30.1 µM [inhibitor, single point]
Cc1ccc(S(=O)(=O)N2CCN(S(=O)(=O)c3cccs3)CC2)cc1 | inconclusive: 21.3 µM [inhibitor, single point]
FC(F)(F)C1CCCN(c2nsc3ccccc23)C1 (stereo not drawn) | active: 9.53 µM
Nc1nonc1-c1noc(N2CCOCC2)n1 | inactive
Fc1cccc(Cl)c1COc1ccc(-c2nnco2)cc1 | inconclusive: 23.9 µM [inhibitor, partial curve, poor fit]
c1ccc(NCC2OCc3ccccc3CO2)cc1 | active: 23.9 µM
Cc1cn(C)c(CC(=O)Nc2cccc(Cl)c2C)c1C(=O)O | inconclusive: 37.9 µM [inhibitor, partial curve, poor fit]
Cc1nc2nc[nH]n2c(=O)c1CCOC(=O)c1c(F)cccc1F | inconclusive: 26.9 µM [inhibitor, partial curve]

Compound | Potency
COc1cc2c(c3oc(-c4ccccc4)cc(=O)c13)C=CC(C)(C)O2 | inconclusive: 23.9 µM [inhibitor, partial curve]
Cc1cc(-c2csc(NC(=O)c3ccc(=O)n(C)n3)n2)c(C)n1CC1CCCO1 (stereo not drawn) | inactive
C/C(N)=C(/C#N)C(=O)COC(=O)c1cc(C)n(-c2ccc(F)cc2)c1C | inconclusive: 26.9 µM [inhibitor, single point]
Cc1ccc(C)c(Cn2nnc(C(=O)NCc3ccc(Cl)cc3Cl)c2N)c1 | inactive
O=C(COC(=O)c1cc(-c2ccc(F)cc2)nc2ccccc12)NCC1CCCO1 (stereo not drawn) | inconclusive: 30.1 µM [inhibitor, partial curve]
COCCOC(=O)c1[nH]c2c(c1C)C(=O)CC(c1cc(OC)ccc1OC)C2 (stereo not drawn) | inactive
COc1ccccc1/C=N/NC(=O)CSc1ccc2ccccc2n1 | inconclusive: 16.9 µM [inhibitor, partial curve, poor fit]
CC(C)(C)OC(=O)n1cc(/C=N/NC(=O)c2ccco2)c2ccccc21 | active: 9.53 µM
O=C(Nc1ccc(Nc2ccccc2)cc1)c1ccco1 | active: 7.57 µM
COC(=O)c1[nH]c2cc(C)ccc2c1NC(=O)CN1CCCc2ccccc21 | active: 23.9 µM
Cc1ncc(CO)c(/C=N/NC(=O)c2ccc(Br)cc2)c1O | inconclusive: 23.9 µM [inhibitor, single point]
CC1(C)NC(=O)N(CC(=O)OCC(=O)Nc2cc(S(=O)(=O)N3CCCCCC3)ccc2Cl)C1=O | inactive
Cc1cc(NC(=O)CN2C(=O)NC3(CCCCCC3)C2=O)ccc1Br | inactive
CCc1ccc2[nH]c(C(=O)Nc3ccc4c(c3)OCO4)cc2c1 | active: 2.69 µM
O=[N+]([O-])c1ccc2c(c1)Nc1nc3ccccc3nc1N2 | inconclusive: 37.9 µM [inhibitor, partial curve, poor fit]
CCCc1ccc(-c2c(C)sc(NC(=O)c3ccnn3C)c2C#N)cc1 | inconclusive: 37.9 µM [inhibitor, partial curve, poor fit]
CCOc1ccc(/C=N/NC(=O)c2cc(-c3cccn3C)n[nH]2)cc1 | inconclusive: 7.57 µM [inhibitor, partial curve, poor fit]
Cc1ccc(-c2nn(-c3ccccc3)cc2/C=N/NC(=O)c2ccc(Br)o2)cc1 | active: 10.7 µM
COc1ccc(-c2nc(Cn3c(SCc4ccc(F)cc4)nc4ccncc43)c(C)o2)cc1OC | active: 13.5 µM
CCOc1c(Cl)cc(C(=O)Nc2cccc(C(=O)O)c2)cc1Cl | active: 3.01 µM
COc1cccc(/C=C2/C(=O)NN(c3ccc(C)c(C)c3)C2=O)c1 | inconclusive: 26.9 µM [inhibitor, partial curve]
COc1cc(/C=C(\C#N)c2nc3ccc(C)cc3[nH]2)cc([N+](=O)[O-])c1O | active: 3.79 µM
CCOc1cc(Br)cc(/C=C2\SC(=Nc3ccccc3)NC2=O)c1O | inconclusive: 23.9 µM [inhibitor, partial curve, poor fit]
